Some of the results follow. Cleavage of a single-stranded DNA pool by Rep nickase domains was read by sequencing at 3 µM enzyme and 37 °C for 1 h; the strands have 90 letters, of which the middle is given. Values are log2 of uncut reads against the no-enzyme pool; more negative means more cut, near 0 not cut, and no call is made. Because reads are shares of a total, they shift together, so uncut sequences can rise above 0 when many others are cut.
Legend:
Assay in all cases: uncleaved DNA left, log2 of reads against the no-enzyme library (log2 ratio); higher = less cleavage (more negative = more Rep cleavage of the k-mer); sequences stand for … in CTCGTCCG…ACCGGAGA
[1] = test system: T1, Rep nickase domain of Muscovy duck circovirus
T1 sequence (residues 1-111 of Rep, tag left off): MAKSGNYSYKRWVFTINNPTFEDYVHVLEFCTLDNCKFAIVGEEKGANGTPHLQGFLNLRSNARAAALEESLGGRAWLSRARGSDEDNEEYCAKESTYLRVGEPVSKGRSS
Method: (§1)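 A pool of 90-nt single-stranded DNAs with seven random bases just before the constant AC of the nick site (name = the seven bases) was cut by 3 µM recombinant His6-SUMO-tagged Rep nickase domain (300 nM DNA, 50 mM HEPES pH 8.0, 50 mM NaCl, 1 mM MnCl2, 1 h, 37 °C, three replicates). Uncut DNA was amplified and sequenced.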

[2] = test system: T2, Rep nickase domain of banana bunchy top virus
T2 sequence (residues 1-94 of Rep, tag left off): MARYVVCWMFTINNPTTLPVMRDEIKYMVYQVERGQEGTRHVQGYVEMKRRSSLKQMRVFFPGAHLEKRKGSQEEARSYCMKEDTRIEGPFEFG
Method: as §1

[3] = test system: T3, Rep nickase domain of cabbage leaf curl virus
T3 sequence (residues 1-116 of Rep, tag left off): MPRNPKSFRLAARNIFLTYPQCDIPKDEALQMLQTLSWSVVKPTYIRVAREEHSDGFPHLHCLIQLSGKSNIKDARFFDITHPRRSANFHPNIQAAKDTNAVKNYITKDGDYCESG
Method: as §1

[4] = test system: T4, Rep nickase domain of chickpea chlorotic dwarf virus
T4 sequence (residues 1-124 of Rep, tag left off): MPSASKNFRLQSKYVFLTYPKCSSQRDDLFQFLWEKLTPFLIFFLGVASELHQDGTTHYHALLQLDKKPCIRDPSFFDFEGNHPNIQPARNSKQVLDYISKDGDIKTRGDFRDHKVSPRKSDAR
Method: as §1

[5] = test system: T5, Rep nickase domain of faba bean necrotic yellows virus
T5 sequence (residues 1-98 of Rep, tag left off): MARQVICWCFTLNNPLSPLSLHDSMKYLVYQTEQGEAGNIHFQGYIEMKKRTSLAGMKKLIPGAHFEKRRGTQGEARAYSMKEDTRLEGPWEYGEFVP
Method: as §1

[6] = test system: T6, Rep nickase domain of maize striate mosaic virus
T6 sequence (residues 1-117 of Rep, tag left off): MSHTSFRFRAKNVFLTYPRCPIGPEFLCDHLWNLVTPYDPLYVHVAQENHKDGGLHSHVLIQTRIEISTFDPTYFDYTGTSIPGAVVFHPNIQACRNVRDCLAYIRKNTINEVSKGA
Method: as §1

[7] = test system: T7, Rep nickase domain of porcine circovirus 2
T7 sequence (residues 2-116 of Rep, tag left off): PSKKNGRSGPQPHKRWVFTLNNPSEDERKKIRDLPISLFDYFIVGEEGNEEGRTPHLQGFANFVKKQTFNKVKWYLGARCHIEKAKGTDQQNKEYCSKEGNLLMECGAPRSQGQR
Method: as §1

[8] = test system: T8, Rep nickase domain of tomato golden mosaic virus
T8 sequence (residues 1-124 of Rep, tag left off): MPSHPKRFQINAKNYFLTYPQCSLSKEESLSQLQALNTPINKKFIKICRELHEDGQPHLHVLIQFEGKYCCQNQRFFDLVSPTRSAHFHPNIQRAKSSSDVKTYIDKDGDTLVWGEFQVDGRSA
Method: as §1

[9] = test system: T9, Rep nickase domain of tomato yellow leaf curl virus
T9 sequence (residues 1-136 of Rep, tag left off): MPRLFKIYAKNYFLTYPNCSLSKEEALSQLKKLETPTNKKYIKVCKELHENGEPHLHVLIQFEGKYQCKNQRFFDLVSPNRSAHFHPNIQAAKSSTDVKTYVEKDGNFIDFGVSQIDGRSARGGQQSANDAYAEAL
Method: as §1

[10] = test system: T10, Rep nickase domain of wheat dwarf virus
T10 sequence (residues 1-137 of Rep, tag left off): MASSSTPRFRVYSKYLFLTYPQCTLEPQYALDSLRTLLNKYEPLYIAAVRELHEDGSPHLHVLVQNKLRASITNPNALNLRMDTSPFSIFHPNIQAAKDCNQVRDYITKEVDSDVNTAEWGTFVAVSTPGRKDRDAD
Method: as §1

Row | Sequence | uncleaved DNA left (log2) [1] | uncleaved DNA left (log2) [2] | uncleaved DNA left (log2) [3] | uncleaved DNA left (log2) [4] | uncleaved DNA left (log2) [5] | uncleaved DNA left (log2) [6] | uncleaved DNA left (log2) [7] | uncleaved DNA left (log2) [8] | uncleaved DNA left (log2) [9] | uncleaved DNA left (log2) [10]
1 | CTCGGCG | 0.128 | 0.0699 | -0.698 | 0.431 | 0.0813 | -0.658 | 0.0449 | -0.0394 | 0.0143 | -0.116
2 | GTTTGTG | 0.0512 | -0.101 | -0.572 | -0.36 | 0.0855 | -0.851 | 0.172 | 0.0436 | 0.111 | -0.127
3 | CGTCAAT | 0.0864 | 0.0915 | 0.578 | 0.966 | 0.0264 | 1.02 | -0.208 | 0.179 | 0.103 | 0.0788
4 | AGTGTAC | 0.0802 | -0.0306 | 0.0871 | 0.239 | -0.167 | 0.5 | 0.00191 | -0.028 | -0.0162 | -0.0542
5 | GAGACCA | 0.0304 | -0.0232 | 0.435 | 1.14 | -0.0288 | 1.47 | 0.12 | 0.121 | 0.0286 | 0.142
6 | TCGGCGT | -0.0759 | -0.251 | -0.783 | -0.536 | -0.179 | -1.1 | -0.0534 | -0.299 | -0.261 | -0.227
7 | ACAGCCC | -0.0749 | -0.103 | -0.284 | -0.082 | -0.112 | -0.582 | -0.0587 | -0.067 | -0.249 | -0.153
8 | TATGTAT | 0.0889 | -0.0856 | -0.134 | -0.864 | -0.00959 | 0.432 | -0.205 | -0.0426 | -0.0327 | -0.0142
9 | GGCTCGC | -0.00781 | -0.00154 | 0.322 | 0.71 | -0.0922 | 1.45 | 0.0699 | 0.0764 | 0.0665 | -0.00725
10 | TCGCTGA | -0.0377 | -0.0932 | 0.258 | 0.7 | -0.00246 | 1.13 | 0.0457 | -0.0992 | -0.116 | 0.0677
11 | ACTTTGA | 0.00277 | -0.0517 | -0.364 | -0.327 | -0.052 | -1.18 | -0.0186 | -0.166 | -0.111 | -0.11
12 | AGAGGTG | -0.0561 | 0.068 | -0.108 | 0.217 | 0.0497 | 0.00593 | 0.0823 | 0.0318 | -0.0805 | 0.0325
13 | TATCCTG | 0.00311 | 0.0135 | 0.117 | 0.774 | -0.0166 | 0.9 | 0.019 | 0.0368 | 0.000919 | -0.0117
14 | CACTTAA | -0.206 | -0.12 | -0.205 | -1.07 | -0.00865 | -1 | -1.69 | -0.215 | -0.174 | -0.0975
15 | ACAGGCG | -0.0649 | 0.073 | 0.391 | 1.77 | 0.0735 | 1.79 | 0.175 | 0.00975 | 0.0863 | -0.0225
16 | TGTACTC | -0.00776 | 0.0186 | 0.331 | 0.398 | 0.0318 | 1.03 | 0.0653 | -0.0102 | 0.113 | 0.106
17 | CCGTACG | -0.00634 | -0.0223 | -0.76 | -0.231 | -0.0584 | -0.889 | 0.0992 | -0.116 | 0.125 | -0.0406
18 | AAACCAC | -0.0733 | -0.141 | -0.0761 | -1.4 | -0.0601 | -0.858 | -0.446 | -0.072 | -0.123 | -0.0582
19 | AAACCCG | -0.0129 | 0.0424 | -0.851 | -0.507 | -0.0636 | -0.826 | -0.857 | 0.0123 | -0.00607 | 0.0293
20 | CCCAGGG | 0.105 | -0.0291 | -0.0988 | 0.172 | 0.0931 | -0.566 | 0.104 | 0.129 | 0.0618 | 0.0459
21 | TTTGTGG | -0.0616 | -0.146 | -0.0225 | 0.113 | -0.102 | -0.238 | 0.0078 | -0.138 | -0.206 | -0.0801
22 | GGCTAAC | -0.0724 | -0.0243 | 0.237 | 0.794 | -0.0194 | 1.53 | 0.117 | -0.121 | -0.0431 | -0.0411
23 | CCCCGCC | -0.126 | 0.000558 | 0.019 | -0.267 | -0.0948 | -0.551 | -0.00563 | -0.0463 | -0.044 | -0.197
24 | CGCACAC | 0.137 | 0.0723 | 0.0778 | 0.139 | 0.00141 | -0.191 | 0.0497 | -0.0686 | -0.0578 | 0.0103
25 | ACATCCG | 0.0779 | 0.0498 | -0.555 | 0.54 | 0.0792 | -0.495 | 0.265 | 0.0513 | 0.0732 | -0.0308
26 | ATTCAGG | 0.0221 | 0.0609 | 0.372 | 1.22 | 0.121 | 0.981 | 0.119 | 0.0626 | -0.0972 | 0.0574
27 | TACCCAT | 0.0354 | -0.0712 | -1.04 | -2.78 | 0.034 | -0.767 | -1.22 | -0.0845 | 0.0836 | 0.057
28 | CGTGATT | -0.0128 | -0.00101 | 0.126 | -1.32 | 0.0218 | 0.0967 | -1.78 | 0.145 | 0.00133 | 0.0281
29 | TTCTCCG | 0.0646 | 0.00296 | -0.719 | -0.493 | 0.117 | -1.07 | 0.143 | -0.0125 | -0.0909 | -0.0305
30 | CGCCATA | -0.176 | 0.00516 | -0.128 | -0.582 | 0.0803 | -0.365 | -0.134 | -0.0837 | -0.0133 | -0.0275

From the supplement of paper PMC7826260
